Assay results published in the supplement of paper PMC5919970.
Where a name gives a salt, the structure may show the parent alone. In all, about 2,000 compounds were measured (“fractional viability relative to vehicle”: median about 0.91, lowest 2% from about 0.045 on). Some of the results follow.

Test system: TYKNU
Assay: fractional viability relative to vehicle; TYKNU is a high-grade serous ovarian cancer line; higher = less growth inhibition
Details: 72 h
Procedure, shortened: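 TYKNU control cells or lentiCRISPRv2 knockout derivatives were seeded at 500 cells per well into drug-stamped 384-well plates holding a ~2100-compound library at 2 or 10 μM, in duplicate. Cells were grown at 37 °C in 5% CO2 in RPMI 1640 with 10% FBS, and drug treatment lasted 72 h. Viability was read by Cell Titer Glo luminescence. Duplicate treatment wells were averaged and normalised to duplicate control wells from the same plate position.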

[1] = 2uM, genotype: DNM1L knockout (sgDNM1L #1)
[2] = 2uM, genotype: sgCTRLA1 (non-targeting control)
[3] = 10uM, genotype: DNM1L knockout (sgDNM1L #1)
[4] = 10uM, genotype: sgCTRLA1 (non-targeting control)

Row | SMILES | fractional viability [1] | fractional viability [2] | fractional viability [3] | fractional viability [4]
1 | Cc1sc2c(c1C)C(c1ccc(Cl)cc1)=N[C@@H](CC(N)=O)c1nnc(C)n1-2 | 0.35 | 0.412 | 0.319 | 0.408
2 | N[C@@H]1C[C@H]1c1ccccc1 [Tranylcypromine (2-PCPA) HCl] | 0.812 | 0.926 | 0.805 | 0.857
3 | Cn1cc(C2=C(c3cn(C4CCN(Cc5ccccn5)CC4)c4ccccc34)C(=O)NC2=O)c2ccccc21 | 0.952 | 0.961 | 0.948 | 0.916
4 | C[C@@H]1CC[C@@]2(OC1)O[C@H]1C[C@H]3[C@@H]4CC=C5C[C@@H](O[C@@H]6O[C@H](CO)[C@@H](O[C@@H]7O[C@@H](C)[C@H](O)[C@@H](O)[C@H]7O)[C@H](O)[C@H]6O[C@@H]6O[C@@H](C)[C@H](O)[C@@H](O)[C@H]6O)CC[C@]5(C)[C@H]4CC[C@]3(C)[C@H]1[C@@H]2C [Dioscin] | 0.0559 | 0.0816 | 0.0468 | 0.0196
5 | C=CCN1CC[C@]23c4c5ccc(O)c4O[C@H]2C(=O)CC[C@@]3(O)[C@H]1C5 [Naloxone HCl] | 0.991 | 1.06 | 0.856 | 0.974
6 | Cc1cccc(C)c1NC(=O)CN1CCCC1=O [Nefiracetam] | 0.909 | 1.08 | 1.02 | 1.16
7 | Cc1cccc(Cc2c[nH]cn2)c1C [Detomidine HCl] | 1.07 | 1.01 | 0.798 | 1.1
8 | c1ccc2c(c1)Nc1ccccc1S2 [Phenothiazine] | 0.922 | 1.14 | 0.719 | 0.945
9 | CN1CCCCC1Cn1cc(C(=O)c2cc([N+](=O)[O-])ccc2I)c2ccccc21 (configuration not stated) | 0.998 | 1.04 | 0.936 | 0.927
10 | O=C(O)C(=O)c1cn(Cc2ccccc2)c2ccc(-c3ccc(OC(F)(F)F)cc3)cc12 [Tiplaxtinin (PAI-039)] | 0.845 | 1 | 0.766 | 0.741
11 | O=c1ccc2cc(O[C@@H]3O[C@H](CO)[C@@H](O)[C@H](O)[C@H]3O)c(O)cc2o1 [Esculin] | 0.983 | 1.21 | 0.762 | 1.04
12 | O=C(NCC1CCOCC1)c1cnc(Nc2ccc(Cl)cc2Cl)nc1C(F)(F)F | 1.03 | 1.32 | 0.768 | 1.19
13 | CC(=O)O[C@H]1C[C@@H]2CC[C@@H]3[C@H](CC[C@@]4(C)[C@H]3C[C@H]([N+]3(C)CCCCC3)[C@@H]4OC(C)=O)[C@@]2(C)C[C@@H]1[N+]1(C)CCCCC1 [Pancuronium dibromide] | 0.922 | 1.21 | 0.832 | 1.06
14 | Cc1cc(O)ccc1Cl [Chlorocresol] | 0.904 | 1.12 | 0.821 | 0.994
15 | c1cc2c(cc1[C@H]1OC[C@H]3[C@@H]1CO[C@@H]3c1ccc3c(c1)OCO3)OCO2 [Sesamin] | 0.954 | 0.976 | 0.725 | 1.08
16 | O=[N+]([O-])/C=C/c1ccc2c(c1)OCO2 | 0.362 | 0.336 | 0.0604 | 0.0474
17 | Fc1cc(F)c2c(c1)[C@H]1C=CC[C@H]1C(c1cccnc1)N2 (some centres not stated) [Golgicide A] | 0.103 | 0.146 | 0.0639 | 0.0921
18 | Nc1nc(N)nc(NC2CC2)n1 [Cyromazine] | 0.724 | 1.06 | 0.907 | 1.06
19 | CN1[C@@H]2CC[C@H]1C[C@@H](OC(=O)[C@H](CO)c1ccccc1)C2 [Hyoscyamine] | 1.13 | 1.03 | 0.903 | 1.03
20 | NCCc1ccc(S(=O)(=O)F)cc1 | 0.958 | 1.1 | 0.941 | 0.778

Row | SMILES | fractional viability [1] | fractional viability [2] | fractional viability [3] | fractional viability [4]
21 | Cc1cccc(C(C)c2c[nH]cn2)c1C (configuration not stated) [Medetomidine HCl] | 1.09 | 1.09 | 0.755 | 1.03
22 | C=C[C@H]1CN2CC[C@H]1C[C@H]2[C@H](O)c1ccnc2ccccc12 [Cinchonidine] | 1.13 | 1.12 | 0.817 | 1
23 | COC[C@H]1OC(=O)c2coc3c2[C@@]1(C)C1=C(C3=O)[C@@H]2CCC(=O)[C@@]2(C)C[C@H]1OC(C)=O [Wortmannin] | 0.837 | 0.906 | 0.191 | 0.467
24 | C/C(=C\c1csc(C)n1)[C@@H]1C[C@@H]2O[C@]2(C)CCC[C@H](C)[C@H](O)[C@@H](C)C(=O)C(C)(C)[C@@H](O)CC(=O)O1 [Epothilone B (EPO906, Patupilone)] | 0.275 | 0.321 | 0.3 | 0.302
25 | C=CC[C@]1(O)CC[C@H]2[C@@H]3CCC4=CC(=O)CCC4=C3C=C[C@@]21C [Altrenogest] | 0.986 | 1.12 | 0.849 | 1.01
26 | O=c1[nH]c2ccccc2n1CCCN1CCC(n2c(=O)[nH]c3cc(Cl)ccc32)CC1 [Domperidone] | 1.14 | 1 | 0.812 | 0.834
27 | CC1(C)CC(O)CC(C)(C)N1[O] [Tempol] | 0.995 | 1.15 | 0.799 | 1.17
28 | O=S(=O)(CC1CS1)c1ccc(Oc2ccccc2)cc1 (configuration not stated) | 0.744 | 0.851 | 0.163 | 0.172
29 | CN1[C@@H]2CC(O)C[C@H]1[C@@H]1O[C@@H]12 (some centres not stated) [Scopine] | 1.04 | 1.09 | 0.915 | 1.07
30 | CN(C)Cc1c[nH]c2ccccc12 [Gramine] | 0.908 | 1.14 | 0.859 | 0.971
31 | COc1ccc(C(=O)N2CCCC2=O)cc1 [Aniracetam] | 1.11 | 1.2 | 1.04 | 1.18
32 | O=C(O[C@H]1C[C@H]2CC[C@@H](C1)[N+]21CCCC1)C(O)(c1ccccc1)c1ccccc1 [Trospium chloride] | 0.962 | 1.06 | 0.908 | 1.09
33 | CC[C@@H](C(N)=O)N1CCCC1=O [Levetiracetam] | 1.01 | 1.14 | 0.962 | 1.07
34 | O=C(O)CCCc1ccc(N(CCCl)CCCl)cc1 [Chloroambucil] | 0.784 | 1.21 | 0.494 | 0.662
35 | CN1CCC(c2c[nH]c3ccc(O)cc23)CC1 | 1.16 | 1.1 | 0.921 | 0.977
36 | C1=C2CCCN[C@H]2[C@@H]2C[C@H]1[C@H]1CCCCN1C2 [Aloperine] | 1.14 | 1.03 | 1.02 | 0.909
37 | COc1cc([C@@H]2c3cc4c(cc3[C@H](O)[C@H]3COC(=O)[C@@H]23)OCO4)cc(OC)c1OC [Picropodophyllin (PPP)] | 0.139 | 0.142 | 0.121 | 0.0713
38 | NC(=O)CN1CC(O)CC1=O (configuration not stated) [Oxiracetam] | 0.755 | 1.16 | 0.688 | 0.976
39 | CC(C)=CCC[C@]1(C)C=Cc2c(O)c3c(c(CC=C(C)C)c2O1)O[C@]12C(=C[C@@H]4C[C@H]1C(C)(C)O[C@@]2(C/C=C(/C)C(=O)O)C4=O)C3=O [Gambogic Acid] | 0.068 | 0.0361 | 0.0214 | 0.00876
40 | CCNC(=O)C[C@@H]1N=C(c2ccc(Cl)cc2)c2cc(OC)ccc2-n2c(C)nnc21 | 0.592 | 0.61 | 0.356 | 0.424

Row | SMILES | fractional viability [1] | fractional viability [2] | fractional viability [3] | fractional viability [4]
41 | CN1c2ccccc2C(NCCCCCCC(=O)O)c2ccc(Cl)cc2S1(=O)=O (configuration not stated) [Tianeptine sodium] | 1.01 | 0.975 | 0.905 | 0.955
42 | CC[C@@]1(O)C(=O)OCc2c1cc1n(c2=O)Cc2cc3ccccc3nc2-1 [Camptothecin] | 0.104 | 0.121 | 0.0886 | 0.0887
43 | O=C(O)CNC(=O)c1c(O)c2ccccc2n(Cc2ccccc2)c1=O | 1.04 | 1.17 | 0.762 | 1
44 | C[N+](C)(C)CCCCCCCCCC[N+](C)(C)C [Decamethonium Bromide] | 0.68 | 1.03 | 0.739 | 0.969
45 | CC1=C(O)C(=O)C=C2C1=CC=C1[C@@]2(C)CC[C@@]2(C)[C@@H]3C[C@](C)(C(=O)O)CC[C@]3(C)CC[C@]12C [Celastrol] | 0.0457 | 0.0557 | 0.0154 | 0.0139
46 | COc1cc(-n2c(=S)[nH]c3ccccc3c2=O)c(Cl)cc1Cl [Mdivi-1] | 0.879 | 0.994 | 0.654 | 0.851
47 | CC(=O)Nc1ccc(Cc2ccc(NC(C)=O)cc2)cc1 | 0.759 | 0.99 | 0.747 | 0.791
48 | CCCN1C[C@H](CSC)C[C@@H]2c3cccc4[nH]cc(c34)C[C@H]21 [Pergolide mesylate] | 1.18 | 1.02 | 0.913 | 0.978
49 | C[C@H]1CCC/C=C/[C@@H]2C[C@H](O)C[C@H]2[C@H](O)/C=C/C(=O)O1 [Brefeldin A] | 0.0667 | 0.0893 | 0.0771 | 0.075
50 | C[C@](O)(COc1ccc(C#N)cc1)C(=O)Nc1ccc(C#N)c(C(F)(F)F)c1 | 1 | 1.13 | 0.879 | 1.03
51 | CC(=O)Nc1ccc(OC[C@](C)(O)C(=O)Nc2ccc([N+](=O)[O-])c(C(F)(F)F)c2)cc1 [Andarine] | 1.07 | 1.1 | 1.05 | 1.03
52 | C[C@]12N[C@H](Cc3ccccc31)c1ccccc12 [MK-801 (Dizocilpine)] | 1.04 | 1.12 | 0.815 | 1.06
53 | C[C@]12CC[C@H]3[C@@H](CC[C@@]45O[C@@H]4C(O)=C(C#N)C[C@]35C)[C@@H]1CC[C@@H]2O [Trilostane] | 1 | 1.21 | 0.872 | 1.06
54 | COC(=O)C1=CCCN(C)C1 [Arecoline] | 0.949 | 1.26 | 0.757 | 1.06
55 | CNCC(=O)c1ccc(O)c(O)c1 [Adrenalone HCl] | 0.846 | 1.01 | 0.703 | 0.933
56 | CC(C)N(CCNC(=O)CN1CCCC1=O)C(C)C [Pramiracetam] | 0.94 | 1.16 | 0.882 | 1.02
57 | C[N+]1(C)[C@@H]2C[C@@H](OC(=O)[C@H](CO)c3ccccc3)C[C@H]1[C@@H]1O[C@@H]12 [Methscopolamine] | 0.989 | 1.14 | 0.989 | 0.908
58 | C[C@]12CC[C@H](O)C[C@@H]1CC[C@@H]1[C@@H]2CC[C@]2(C)C(=O)CC[C@@H]12 [Epiandrosterone] | 1.15 | 0.958 | 0.801 | 0.952
